{"source": "PubChem BioAssay AID2060354", "about": "(Molecular Pharmacology Branch, DTP, NCI, 2025)", "test_system": "519858-162-T-J1-PDC spheroid growth inhibition", "experiment": "Anticancer human tumor 519858-162-T-J1-PDC patient-derived colon adenocarcinoma cell line growth inhibition [TAK]", "conditions": "stronger effect = lower value, spheroids with HUVEC and MSC", "from_the_text": "Combinatorial screen of targeted agents with TAK-243 and ipatasertib in multi-cell type tumor spheroids\nA high-throughput screen of multi-cell type tumor spheroids was designed to identify active combinations of targeted small molecules and TAK-243 or ipatasertib. Complex spheroids include a stromal component modeled by human endothelial cells (HUVEC) and fibroblasts modeled by human mesenchymal stem cells (MSCs). The concentration ranges selected for each drug and investigational agent were based upon clinically achievable concentrations if the clinical Cmax of the agent was known.\nCompounds. The drugs and investigational agents: TAK-243 (785004), ipatasertib (767898), everolimus (733504), selumetinib (741078), bortezomib (756655), trametinib (758246), ixazomib (758254), vemurafenib (761431), dabrafenib (764134), sapanisertib (764658), alpelisib (765974), and copanlisib (816437), were obtained from the National Cancer Institute (NCI) Developmental Therapeutics Program Chemical Repository. The FDA-approved anticancer drug set is available from the NCI Developmental Therapeutics Program. […] The stock solutions were prepared in dimethyl sulfoxide (DMSO, Sigma-Aldrich, St. Louis, MO, cat. D2650) at 800-fold the tested concentration and stored at -70 degrees C prior to their use. All drugs and investigational agents were tested over a range starting from a high concentration at or near the clinical Cmax and decreasing in half-log increments. If the clinical Cmax for an agent had not been determined, the highest concentration tested was 10 microM.\nNCI60 Cell Culture. NCI60 cell lines were obtained from the NCI Developmental Therapeutics Program Tumor Repository. For each lot of cells, the Repository performed Applied Biosystems AmpFLSTR Identifiler testing with PCR amplification to confirm consistency with the published Identifier STR profile for each cell line. Cells were kept in continuous culture for no more than 20 passages. The optimal seeding densities for each of the cell lines at each time point assessed were determined prior to performing the concentration response studies. Briefly, the NCI60 human tumor lines were grown as monolayers in RPMI 1640 medium supplemented with 10% FBS and 2 mmol/L L-glutamine.\nAn additional 2 lines were from the NCI60 cell line panel including melanomas, MALME-3M and SK-MEL-2. Pooled donor human umbilical vein endothelial cells (HUVEC, Lonza, cat. CC-2519) and human mesenchymal stem cells (hMSC, Lonza, cat. PT-2501) were purchased from Lonza (Walkersville, MD).\nPDMR cell lines were grown in complete medium (DC medium): Dulbecco's modified Eagle's medium (DMEM)/F12 supplemented with 5% fetal bovine serum (FBS), 2 mM L-glutamine, 100 U/mL penicillin and 100 µg/ml streptomycin, 0.4 µg/ml hydrocortisone, 10 ng/ml epidermal growth factor (EGF) recombinant human protein, 24 µg/mL adenine, and 0.1 mg/mL primocin. During culture from frozen stock vials, PDMR cells were cultured in the same medium containing 10 µM Y-27632 (see Table 3). The PDCs were cultured in complete DMEM/F12 media without 10 microM Y-27632 dihydrochloride for at least two passages prior to the screen. The pooled donor HUVEC and hMSC were cultured in endothelial cell growth medium 2 (PromoCell, Heidelberg, Germany, cat. C-22011) and mesenchymal stem cell growth medium 2 (PromoCell, cat. C-28009), respectively. For all experiments, HUVEC and hMSC were used at passages </=5.\nFor the pre-screen, cell seeding densities were determined from a titration spanning the range from 5,000 to 313 cells per well. The mct-spheroids including 60% malignant cells, 25% HUVEC and 15% MSC dispensed as a mixture into U-bottom Ultra-Low Attachment 384-well plates (Corning, NY)\nHigh-throughput Drug Combination Screening.\nPrior to their inoculation into 384-well plates, malignant cells, HUVEC, and hMSC were removed from T flasks using TrypLE express (Thermo Fisher Scientific, cat. 12605036) and harvested by centrifugation for 5 min at 233 x g. […]", "note": "Some entries of the source have several records that differ or are many. The other results are left out here. An entry can have further records. The values listed for one entry are repeated measurements in other runs, samples, wells, individuals or studies. Signs of the kind (2×) give the number of equal values in this list.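 Also: spheroids exposed to drugs for 7 days.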", "data": [{"smiles": "CC(C)CC(NC(=O)CNC(=O)c1cc(Cl)ccc1Cl)B1OC(=O)CC(CC(=O)O)(C(=O)O)O1", "note": "(stereo unspecified)", "values": [{"measurement": "viability, T/C", "setting": "compound alone 0.001 µM", "value": "117% and 79.8%"}]}, {"smiles": "CC(C)NCC(C(=O)N1CCN(c2ncnc3c2C(C)CC3O)CC1)c1ccc(Cl)cc1", "note": "(stereo unspecified)", "values": [{"measurement": "viability, T/C", "setting": "compound alone 0.3 µM", "value": "89, 101 (2×), 94.7, 69.9, 102, 77.5, 89.9, 87.1, 95.8%"}, {"measurement": "viability, T/C", "setting": "compound alone 0.949 µM", "value": "108, 94.9, 79.5, 89.2, 105, 104, 76.9, 79.4, 101, 77.7%"}, {"measurement": "viability, T/C", "setting": "compound alone 9.49 µM", "value": "92.8, 87.7, 88.6, 96.5, 101, 67.3, 85.8, 98.3, 100, 94%"}]}, {"smiles": "CC(C)n1nc(-c2ccc3oc(N)nc3c2)c2c(N)ncnc21", "values": [{"measurement": "viability, T/C", "setting": "compound alone 0.000316 µM", "value": "77.9% and 108%"}]}, {"smiles": "COC1CC2CCC(C)C(O)(O2)C(=O)C(=O)N2CCCCC2C(=O)OC(C(C)CC2CCC(OCCO)C(OC)C2)CC(=O)C(C)C=C(C)C(O)C(OC)C(=O)C(C)CC(C)C=CC=CC=C1C", "note": "(stereo unspecified)", "values": [{"measurement": "viability, T/C", "setting": "compound alone 0.001 µM", "value": "74.8% and 100%"}]}]}
